One experiment deals with T1, HA-tagged ZNF541 (mouse) (UniProt Q0GGX2).
T1 sequence: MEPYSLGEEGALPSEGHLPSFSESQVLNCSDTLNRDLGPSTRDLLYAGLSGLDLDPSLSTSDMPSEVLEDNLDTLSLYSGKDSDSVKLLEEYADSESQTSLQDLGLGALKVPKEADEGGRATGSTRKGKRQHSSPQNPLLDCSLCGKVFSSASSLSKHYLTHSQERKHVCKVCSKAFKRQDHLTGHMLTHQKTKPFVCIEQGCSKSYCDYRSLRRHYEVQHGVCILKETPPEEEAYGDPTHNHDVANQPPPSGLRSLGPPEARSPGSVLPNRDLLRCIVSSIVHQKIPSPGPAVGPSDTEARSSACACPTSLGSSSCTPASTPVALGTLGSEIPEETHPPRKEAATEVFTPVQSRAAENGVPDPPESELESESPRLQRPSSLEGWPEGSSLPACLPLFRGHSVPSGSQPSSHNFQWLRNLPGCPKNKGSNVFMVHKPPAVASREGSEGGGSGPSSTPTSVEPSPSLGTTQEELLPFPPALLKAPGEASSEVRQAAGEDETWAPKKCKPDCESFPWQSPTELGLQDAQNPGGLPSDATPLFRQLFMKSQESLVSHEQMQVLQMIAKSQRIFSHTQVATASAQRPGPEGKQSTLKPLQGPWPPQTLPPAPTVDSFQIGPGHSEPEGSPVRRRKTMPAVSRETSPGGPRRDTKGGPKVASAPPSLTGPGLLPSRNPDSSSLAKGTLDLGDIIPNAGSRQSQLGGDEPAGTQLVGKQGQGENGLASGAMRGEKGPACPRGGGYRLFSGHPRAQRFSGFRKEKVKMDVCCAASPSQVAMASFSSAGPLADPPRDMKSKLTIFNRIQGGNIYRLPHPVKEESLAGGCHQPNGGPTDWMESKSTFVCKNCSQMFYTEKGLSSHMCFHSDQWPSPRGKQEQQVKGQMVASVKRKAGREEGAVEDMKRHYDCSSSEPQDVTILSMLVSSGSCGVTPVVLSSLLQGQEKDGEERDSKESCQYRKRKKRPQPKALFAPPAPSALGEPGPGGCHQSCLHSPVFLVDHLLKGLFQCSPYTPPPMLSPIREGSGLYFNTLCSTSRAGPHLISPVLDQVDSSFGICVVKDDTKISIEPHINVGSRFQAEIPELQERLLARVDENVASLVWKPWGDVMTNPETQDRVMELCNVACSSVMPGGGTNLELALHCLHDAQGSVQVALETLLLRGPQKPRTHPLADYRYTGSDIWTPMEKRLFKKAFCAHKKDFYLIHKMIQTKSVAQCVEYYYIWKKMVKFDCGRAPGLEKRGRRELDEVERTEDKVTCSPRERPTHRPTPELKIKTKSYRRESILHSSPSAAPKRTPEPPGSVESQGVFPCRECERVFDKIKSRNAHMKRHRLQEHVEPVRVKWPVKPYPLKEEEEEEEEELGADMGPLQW
Put plainly: co-IP; FLAG- and HA-tagged proteins co-expressed in HEK293 cells (harvested 24 hrs after transfection); whole cell lysates in MAPK buffer; agarose beads with anti-FLAG or anti-HA antibodies, 4°C, 2.5 hrs.

Chains of the proteins cited; added tags and fusions are not shown.
UniProt Q13547: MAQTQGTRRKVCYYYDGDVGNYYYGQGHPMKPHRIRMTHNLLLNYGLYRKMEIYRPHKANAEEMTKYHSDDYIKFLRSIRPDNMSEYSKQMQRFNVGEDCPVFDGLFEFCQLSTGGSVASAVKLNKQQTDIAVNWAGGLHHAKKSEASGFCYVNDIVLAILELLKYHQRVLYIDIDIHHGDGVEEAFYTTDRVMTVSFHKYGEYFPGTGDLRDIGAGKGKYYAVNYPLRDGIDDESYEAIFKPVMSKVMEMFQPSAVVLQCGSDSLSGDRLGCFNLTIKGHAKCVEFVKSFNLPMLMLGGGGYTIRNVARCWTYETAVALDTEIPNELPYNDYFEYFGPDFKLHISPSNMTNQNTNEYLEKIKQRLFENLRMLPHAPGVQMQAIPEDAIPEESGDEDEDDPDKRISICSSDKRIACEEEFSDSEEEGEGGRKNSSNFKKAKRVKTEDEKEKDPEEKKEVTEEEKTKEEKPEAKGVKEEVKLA

Experiment [1] has as its target T2, HA-tagged Dnttip1 (mouse) (UniProt Q99LB0).
T2 sequence: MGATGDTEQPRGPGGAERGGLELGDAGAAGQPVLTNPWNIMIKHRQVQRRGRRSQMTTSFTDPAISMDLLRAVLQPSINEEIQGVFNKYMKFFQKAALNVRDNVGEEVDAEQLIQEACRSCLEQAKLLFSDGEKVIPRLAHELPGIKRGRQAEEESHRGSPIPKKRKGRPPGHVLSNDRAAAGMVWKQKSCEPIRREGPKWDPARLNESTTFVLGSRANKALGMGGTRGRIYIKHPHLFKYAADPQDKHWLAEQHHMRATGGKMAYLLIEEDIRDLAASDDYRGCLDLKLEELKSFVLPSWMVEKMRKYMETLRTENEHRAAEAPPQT
The description is as above.

Experiment [2] has as its target T3, FLAG-tagged SAEG-2 expressed at the endogenous level in C. elegans (C. elegans) (UniProt Q03615).
T3 sequence: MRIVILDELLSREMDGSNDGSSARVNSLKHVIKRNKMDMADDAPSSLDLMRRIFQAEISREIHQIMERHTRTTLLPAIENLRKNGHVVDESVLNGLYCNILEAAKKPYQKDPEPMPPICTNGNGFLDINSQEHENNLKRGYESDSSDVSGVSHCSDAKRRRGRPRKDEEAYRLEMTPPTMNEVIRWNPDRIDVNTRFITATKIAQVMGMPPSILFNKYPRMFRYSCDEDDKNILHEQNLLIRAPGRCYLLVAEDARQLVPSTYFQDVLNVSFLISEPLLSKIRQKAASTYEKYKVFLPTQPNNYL
Put plainly: co-IP; lysates of mixed-stage C. elegans grown in liquid culture; FLAG-tagged SAEG-2 expressed at the endogenous level, endogenous EGL-4 detected; wild-type, egl-4(gf) and egl-4(n479) backgrounds.

For experiment [3], the target named is T4, HA-tagged SAEG-2 (C. elegans) (UniProt Q03615).
T4 sequence: T3 sequence
The experiment can be described thus: co-IP; FLAG- and HA-tagged proteins co-expressed in Drosophila S2 cells (700 µM copper sulfate, 24 hrs); whole cell lysates in MAPK buffer (10 mM Tris-HCl pH 8.0, 50 mM NaCl, 1 mM EDTA, 1% NP-40); agarose beads with anti-FLAG or anti-HA antibodies, 4°C, 2.5 hrs.

The target in experiment [4] is T5, HA-tagged SAEG-1 (C. elegans) (UniProt Q20733).
T5 sequence: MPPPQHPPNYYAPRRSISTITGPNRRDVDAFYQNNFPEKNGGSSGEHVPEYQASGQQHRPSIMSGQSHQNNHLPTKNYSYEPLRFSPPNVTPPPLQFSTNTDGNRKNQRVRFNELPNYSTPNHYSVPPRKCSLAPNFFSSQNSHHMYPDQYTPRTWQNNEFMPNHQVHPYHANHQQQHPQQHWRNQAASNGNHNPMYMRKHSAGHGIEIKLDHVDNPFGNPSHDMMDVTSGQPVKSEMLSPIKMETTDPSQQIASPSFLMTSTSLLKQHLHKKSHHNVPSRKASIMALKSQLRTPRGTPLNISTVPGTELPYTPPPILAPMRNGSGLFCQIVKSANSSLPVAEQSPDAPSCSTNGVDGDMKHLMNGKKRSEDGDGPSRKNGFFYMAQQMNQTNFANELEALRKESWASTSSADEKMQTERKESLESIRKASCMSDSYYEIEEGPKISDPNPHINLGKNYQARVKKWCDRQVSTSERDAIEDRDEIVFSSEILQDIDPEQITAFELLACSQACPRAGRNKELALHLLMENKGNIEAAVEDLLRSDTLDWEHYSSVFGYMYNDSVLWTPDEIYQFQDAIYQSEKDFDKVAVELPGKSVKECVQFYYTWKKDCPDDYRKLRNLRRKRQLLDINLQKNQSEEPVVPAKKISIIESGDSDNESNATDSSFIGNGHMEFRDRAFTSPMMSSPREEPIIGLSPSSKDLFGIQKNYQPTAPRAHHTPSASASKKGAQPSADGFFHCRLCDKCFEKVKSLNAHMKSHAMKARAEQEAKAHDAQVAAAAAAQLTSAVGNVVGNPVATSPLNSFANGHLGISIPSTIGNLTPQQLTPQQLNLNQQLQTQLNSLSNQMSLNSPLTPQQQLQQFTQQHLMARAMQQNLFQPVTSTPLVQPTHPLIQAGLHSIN
The experiment is described as above.

The target of experiment [5] is FLAG-tagged SAEG-2 (C. elegans) (UniProt Q03615). Described as above.
Experiment [6] addresses FLAG-tagged Dnttip1 (mouse) (UniProt Q99LB0). Put plainly: co-IP; FLAG- and HA-tagged proteins co-expressed in HEK293 cells (harvested 24 hrs after transfection); whole cell lysates in MAPK buffer; agarose beads with anti-FLAG or anti-HA antibodies, 4°C, 2.5 hrs.

Changes are numbered by the printed parent chain. Names may count otherwise. Results are given in words; binding and its absence hold for the method and conditions named. Binding seen in cells or lysates may run through a third protein. Some entries that bind do so weakly or less than the wild type. Sequences can lack the tags named with a protein.

In the case of “FLAG-tagged HDAC1 (from UniProt Q13547 1-482) (enzyme)”, the binding entry (with HA-tagged ZNF541 (mouse); in experiment [1]) was “binds” throughout.

B1: endogenous, constitutively active EGL-4(K162N) from egl-4(gf) animals (enzyme, UniProt O76360 1-780)
chain: MSSGSRPSSGGGGGGGGASGGAGGGAPGGGGGGIRGFFSKLRKPSDQPNGNQVQVGTRTFEAHELQKLIPQLEEAISRKDAQLRQQQTIVEGHIKRISELEGEVTTLQRECDKLRSVLEQKAQSAASPGGQPPSPSPRTDQLGNDLQQKAVLPADGVQRAKNIAVSAEPTNFENKPATLQHYNKTVGAKQMIRDAVQKNDFLKQLAKEQIIELVNCMYEMRARAGQWVIQEGEPGDRLFVVAEGELQVSREGALLGKMRAGTVMGELAILYNCTRTASVQALTDVQLWVLDRSVFQMITQRLGMERHSQLMNFLTKVSIFQNLSEDRISKMADVMDQDYYDGGHYIIRQGEKGDAFFVINSGQVKVTQQIEGETEPREIRVLNQGDFFGERALLGEEVRTANIIAQAPGVEVLTLDRESFGKLIGDLESLKKDYGDKERLAQVVREPPSPVKIVDDFREEFAQVTLKNVKRLATLGVGGFGRVELVCVNGDKAKTFALKALKKKHIVDTRQQEHIFAERNIMMETSTDWIVKLYKTFRDQKFVYMLLEVCLGGELWTTLRDRGHFDDYTARFYVACVLEGLEYLHRKNIVYRDLKPENCLLANTGYLKLVDFGFAKKLASGRKTWTFCGTPEYVSPEIILNKGHDQAADYWALGIYICELMLGRPPFQASDPMKTYTLILKGVDALEIPNRRIGKTATALVKKLCRDNPGERLGSGSGGVNDIRKHRWFMGFDWEGLRSRTLKPPILPKVSNPADVTNFDNYPPDNDVPPDEFSGWDEGF
With B1, the binding entry in experiment [2] is “binds”.

B2: FLAG-tagged EGL-4(K499A), kinase dead (enzyme, UniProt O76360 1-780)
chain: B1 chain with N162K, K499A
B2: the binding result in experiment [3] and in experiment [4] was “binds” in each case.

B3: endogenous wild-type EGL-4 (basal state) (enzyme, UniProt O76360 1-780)
chain: B1 chain with N162K
For B3, in experiment [2], the binding result is given as “no binding”.

B4: FLAG-tagged SAEG-2 (protein, UniProt Q03615 1-305)
chain: T3 sequence
On to B4, for which the binding entry in experiment [4] and in experiment [5] was “binds” each time.

B5: FLAG-tagged Dnttip1 (protein, UniProt Q99LB0 1-328)
chain: T2 sequence
In the case of B5, in experiment [6], the binding result is recorded as “binds”.

These data come from publication PMC3088716.
